Screen size: about 150,000 compounds; about 540 (0.36%) showed an effect of 50% or more. Some of the results follow.

The term % Inhibition denotes the relative decrease from the control value, in per cent.

This test concerns Plasmodium falciparum. Nature of the test: Primary screen in NF54 nanoGlo assay, in single point, at 2uM, 72h; a lower Z score goes with more inhibition. The format is functional, Erythrocyte. The settings on record: timepoint 72 hour.
Take `COc1cc2c(cc1CN(CCO)Cc1nccs1)OCO2`: the “% Inhibition” value is given as 11% and the Z score was -2.08.
With `CCOc1ccccc1NC(=O)c1ccc(F)c(S(=O)(=O)N2CCC2)c1`, the “% Inhibition” value came out at 1% and the Z score is -0.21.
For the molecule `CCCOC[C@H]1CCN(C(=O)c2cccnc2NC)C1`, the “% Inhibition” value was -2% and the Z score came out at 0.4.
For `CC[C@H](NC(=O)Nc1c(C)c(-c2ccccc2)nn1C)c1cnn(C)c1`, in that order: 2% and -0.34.
Turning to `O=c1[nH]c2cc3c(cc2c(-c2ccc(Cl)cc2)c1CN1CCOCC1)OCCO3`, the “% Inhibition” value turned out to be 2% and the Z score is recorded as -0.28.
The corresponding values for `O=C(c1ccccc1F)N(Cc1cccc(Cl)c1)C[C@H]1CC(c2ccccc2)=NO1` are -18% and 1.91.
The corresponding values for `O=C(c1cc(=O)[nH]c2ccc(F)cc12)N1CCC[C@@]2(CCOC2)C1` are 3% and -0.52.
The corresponding values for `CN1CCC[C@@H]1CN1CCO[C@H](c2ccc(Cl)cc2)C1` are 2% and -0.27.
Turning to `CC(C)c1ccc(-c2cc3c(=O)n(CCC(=O)NC[C@H]4CCCO4)ccn3n2)cc1`, the “% Inhibition” value is listed as -19% and the Z score was found to be 2.42.
For `C[C@@H](CC(=O)c1cccc(F)c1)C(=O)N(C)Cc1ccccn1`, in that order: -1% and 0.15.
On to `Cc1nc(C)c(CC(=O)N2CCc3ccccc32)c(=O)[nH]1`, for which the “% Inhibition” value is reported as -6% and the Z score amounted to 0.9.
For `O=C1CN(c2cc(N3CCCC3)ncn2)CCN1c1cccs1`, the “% Inhibition” value was -16% and the Z score is on record as 1.67.
The corresponding values for `Cn1cccc1[C@@H]1CCCN1CCN1C(=O)NC2(CCCC2)C1=O` are -2% and 0.23.
The corresponding values for `Nc1nccnc1C(=O)Nc1cccc(-n2ccnn2)c1` are -8% and 1.55.
The corresponding values for `CC(C)CS(=O)(=O)NC(=O)CCOc1ccccc1` are 3% and -0.44.
Turning to `C[C@H]1CN(C)CCCN1C(=O)c1cc(-c2cnn(C)c2)nc2ccccc12`, the “% Inhibition” value is -13% and the Z score was found to be 1.84.
In the case of `CC(Cn1ccnc1)NC(=O)C(C)Oc1ccc(-c2ccccc2)cc1` (centres undefined), the “% Inhibition” value is -4% and the Z score was 0.66.
For `CN(C(=O)CCc1cccnc1)[C@H]1CCCN(Cc2ccccc2)C1`, in that order: -5% and 0.55.
`COc1ncccc1CN(CCCO)c1ccccc1`: the “% Inhibition” value is reported as -11% and the Z score came out at 1.22.
The corresponding values for `CC(=O)N(C)c1cccc(NC(=O)c2nccnc2N)c1` are -2% and 0.18.
The corresponding values for `Cc1nc(C2CC2)sc1C(=O)NC(C)(C)c1cc(C(F)F)on1` are 8% and -1.07.
In the case of `O=C(CN1CCCC[C@H](O)C1=O)Nc1ccc2c(c1)CC(=O)N2`, the “% Inhibition” value is given as -7% and the Z score was 1.31.
The corresponding values for `Cc1nn(-c2ccc3nnc(C)n3n2)c(C)c1CCC(=O)N1CCCCCC1` are -10% and 1.28.
As for `O=C1CN(C(=O)Cn2ccnc2)c2ccccc2N1`, the “% Inhibition” value is listed as -9% and the Z score was determined as 1.06.
For `CN1CC2(CCN(Cc3ccccc3OCCc3ccccc3)CC2)CC1=O`, in that order: 0% and -0.02.
As to `Cc1cnn(CCC(=O)N2CCN([C@@H](C)c3nccs3)CC2)c1`, the “% Inhibition” value stood at 2% and the Z score is -0.31.
For `O=C(NCC(F)(F)C1(O)CCCCC1)c1csnn1`, in that order: 10% and -1.95.
With `CC(=O)c1nn(C(C)C)cc1OCCOc1ccccc1F`, the “% Inhibition” value is -1% and the Z score stood at 0.22.
Take `Cc1cc(C(=O)NC[C@H](Cc2ccc3ccccc3c2)C(=O)O)no1`: the “% Inhibition” value is -10% and the Z score was determined as 1.89.
The corresponding values for `CN(Cc1cccnc1)C(=O)Nc1ccncc1F` are -17% and 2.26.
The corresponding values for `Cc1cnc(NCC2(Cn3ccnc3C)CC2)nc1` are -2% and 0.27.
For `CCNC(=O)[C@@H]1C[C@@H](NCc2ccc(C(F)(F)F)cc2)CN1C1Cc2ccccc2C1`, in that order: -14% and 1.93.
As to `O=C(NCCO)c1cccc(NC[C@H]2CCC=CO2)c1`, the “% Inhibition” value came out at 1% and the Z score is recorded as -0.09.
The corresponding values for `CCNC(=O)NC(=O)CNC(C)(C)c1nc(C)c(C)s1` are -6% and 0.77.
The corresponding values for `Cc1cc(-c2ccc(C(=O)N(C)CCn3ccnc3C)cc2)c(=O)[nH]n1` are -11% and 1.63.
The corresponding values for `COC(=O)C1(CNC2CCC(C)C(C)C2)CCOCC1` (centres undefined) are 13% and -2.05.
Turning to `Cc1cc(C(=O)N2CCN(C(=O)Cc3c[nH]c4ccccc34)CC2)c2c(=O)[nH]n(C)c2n1`, the “% Inhibition” value is 0% and the Z score came to 0.01.
For `CC(C)c1ocnc1C(=O)N1CCCC2CCCC21` (centres undefined), in that order: -2% and 0.24.
For `Cc1cc(C)c2nonc2c1S(=O)(=O)N1C[C@H](C(C)C)[C@@H](N(C)C)C1`, in that order: 6% and -1.11.
Take `Cc1cccc(CN(Cc2cccc(C)n2)C(=O)c2cc[nH]c2C)n1`: the “% Inhibition” value is -1% and the Z score stood at 0.22.
As for `c1coc(CN2CCC(N3CCn4cccc4C3)CC2)c1`, the “% Inhibition” value is -9% and the Z score worked out at 1.23.
As for `CC1CN(CC(=O)Nc2ccc(CN3CCOCC3)cc2)CC(C)O1` (centres undefined), the “% Inhibition” value is -6% and the Z score came to 0.58.

(Values after ChEMBL document CHEMBL4888484, “Replenishing the malaria drug discovery pipeline: Screening and hit evaluation of the MMV Hit Generation Library 1 (HGL1) against asexual blood stage Plasmodium falciparum ,using a nano luciferase reporter read-out” (2022).)
